Results taken from the supplement of paper PMC11417369.
± gives the standard deviation of the averaged measurements. Some of the results follow.

What follows are sequences tested on PfAP2-EXP AP2 domain (GST-tagged) (assay: gcPBM binding intensity (ln(normalized median fluorescence intensity)); higher = stronger DNA binding).
How it was run: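 Binding intensity is defined as the maximum Masliner-normalised natural-log median intensity across replicate spots for either probe orientation. It was measured on an Agilent 4 × 180k array of primer-extended double-stranded 36-bp intergenic genomic probes and negative controls, to which GST-tagged P. falciparum DNA-binding domains made in E. coli were applied for 1 h in 1× PBS with 1% milk, 0.2 mg/ml BSA, 0.5% salmon testes DNA and 0.03% Triton X-100. Detection was by Alexa488 anti-GST antibody and scanning at 488 nm.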

Sequence	gcPBM binding intensity (ln)
CAAAATTTATATAATAGTACACATGATCTTTTTTCT [XGTACX_site8956]	8.43 ± 0.49
TATATATATATATATATATATATTAATATATATTAC [XGTACX_negctrl_site103]	9.88 ± 0.42
AAATTAATAAATATTTTTATAAATTATAATATTAAT [GTGCAC_negctrl_site533]	7.91 ± 0.42
ATAACAAAATAAAACACACACACAAATGTACCTATA [CACACA_site7190]	8.69 ± 0.45
TAAAGGCAAACAAACACACACACATATATACCTATA [CACACA_site7078]	8.62 ± 0.63
TATTTATAAATATAAACACACAACATTATATGCATA [CACACA_site5748]	8.6 ± 0.47
AAAAGTGTATGTAGGTGTACTTTTTATTTCTTCTTT [XGTACX_site8819]	8.53 ± 0.39
TTTTACTATGATATTTATATATCTATATATGTATAT [XGTACX_negctrl_site499]	8.21 ± 0.36
TATAATATTATAGTTTGTACGAAAATAATATATTTA [XGTACX_site8673]	8.42 ± 0.51
AAAAATAAAAATGAGTGTACTTTAAGCCCTACACTT [XGTACX_site828]	8.26 ± 0.25
ACGATGTTCATCACTACACACACAAAGAAATATATA [CACACA_site8859]	8.63 ± 0.47
AACCAAAATTTTTGTCGTACAAAAGAGCAAATGTAG [XGTACX_site6472]	9.11 ± 0.34
TGATTATAGACACGCGCACACACAACAAAAAAAAAA [CACACA_site9179]	8.72 ± 0.45
TAAGTTTGTGCAAGTGGTACATATATATAAATTTAT [XGTACX_site5944]	8.75 ± 0.37
TGGATTTTTTGATTTTTGTTTTTCTTCTTTCCCCCC [CACACA_negctrl_site1471]	9.31 ± 0.2
TTAGCAACTATTACTACACACATTTGTATTTAATTT [CACACA_site4961]	8.49 ± 0.35
TTTACATAAACTGGTAGTACATAATATGGCTTAAAA [XGTACX_site5002]	8.49 ± 0.35
TAAAATATATTTTTCTGTACACAAAAATATATTAAA [XGTACX_site2813]	8.44 ± 0.13
TATATATTAATATATGCATGTTAATATATTATGAAA [TGCATGCA_site61]	8.29 ± 0.38
ACAGTATAAAAATAAGCACACACACTAATATATATT [CACACA_site8212]	8.75 ± 0.4
AATGTAAAACGAAATGCACACTATGGAAAATATAAA [CACACA_site4559]	9.05 ± 0.45
TCTTTATATCATCTTTCTAAATATATATATATATAA [CACACA_negctrl_site77]	8.56 ± 0.58
TAATAATAATTAAAATGAGATAAATAAATATATATA [TGCATGCA_negctrl_site322]	8.39 ± 0.26
CTATTAATGTACTCTACACACATATAAGAGGACATT [CACACA_site471]	8.4 ± 0.2
TTATATATTTATAAATGTACGTATAAGAATTTAATT [XGTACX_site8541]	8.57 ± 0.38
TATTACAAAAATGTGTTATTATATAAACGTATAGAG [XGTACX_negctrl_site529]	8.63 ± 0.35
TTTCTTATATTATATAAATATATAGATGTTAATGGT [CACACA_negctrl_site706]	8.38 ± 0.47
AATATAATATAATGCACACATAAAAAAAAAAAAAAA [CACACA_site304]	8.77 ± 0.071

Sequence	gcPBM binding intensity (ln)
TTAATATTAAAATATAAACACACAAAATTCAATTAT [CACACA_site9262]	8.48 ± 0.42
AGTAAATATATTATATGTACGTATCATAAAATATAT [XGTACX_site1567]	8.46 ± 0.28
AAGTTTAAAGGAATTACACAAACAAGCAAATATATA [CACACA_negctrl_site857]	8.79 ± 0.52
GTAAAATAAATAATATAAATAAAATGAAATGAAACA [TGCATGCA_negctrl_site519]	9.01 ± 0.63
ATTTTTTTTTTTTTTTTTAATTTATGTTGTTATTTT [CACACA_negctrl_site944]	8.2 ± 0.5
ATATATATATATATAGTGCAAATAAAAAATAGACAA [GTGCAC_site9796]	10.2 ± 0.3
TAATATATTAAAAGAAGTACATTTCTGATTTAATAG [XGTACX_site6403]	8.38 ± 0.25
GAACCGTTTTTATGTAGTACATATGTATATATATAT [XGTACX_site1577]	9.66 ± 0.2
ATTATATAATAATAAAGTACTAATATTTTTAAAAGA [XGTACX_site235]	8.41 ± 0.38
TTATTTATATATTGCCCACACACATGTGATTATTTA [CACACA_site1715]	8.91 ± 0.4
AATATTTTTTGTTTTACACACATATATAAATATATA [CACACA_site3602]	8.53 ± 0.41
TATTCCCCCCAACACACACACACACCGACATACCAC [CACACA_site8723]	10.2 ± 0.23
GAATTATATACTTATTGTACAAAAAAAAAAAAAAAA [XGTACX_site3193]	8.19 ± 0.37
ATAAACATGTATATATTAAAAAAAAAAAAAAAAAAT [CACACA_negctrl_site92]	8.21 ± 0.46
TTTTTAATTTTTTTCACACATATATAAATACAAATA [CACACA_site5530]	8.4 ± 0.41
AAATTACAAATAAAATGTACTCATGTTTTTATTATA [XGTACX_site7223]	8.15 ± 0.26
GCAAGGTCCACACTGGTGCATTAAAAATAAAATATA [GTGCAC_site9956]	8.87 ± 0.18
TTTTTTAAATATATATGTACATATATCTATATATAT [XGTACX_site3461]	8.62 ± 0.11
TTTATAATTTATAGGCGGACAGGAAAATTTTATAAA [XGTACX_site6955]	8.81 ± 0.37
TTTTTCTTTTTTTGTTGTACATTTTGTAATATTTAC [XGTACX_site4102]	8.78 ± 0.55
TACAGGAATATTTTTACACACTAAAAGTTATAAACT [CACACA_site6876]	8.17 ± 0.38
TGAACAGGTCATAATTTACACACTATATATTTTATT [CACACA_site8123]	8.51 ± 0.52
AAGAAAAATTCTTCACGTACAAATAATTATATATAT [XGTACX_site7217]	8.55 ± 0.2
TATAATATATATGTATGTACGTATGTATGATTTTGT [XGTACX_site1164]	8.63 ± 0.36
ATATACATTTTAAATTTTAATGTAACCCATGGGAGA [CACACA_negctrl_site588]	8.46 ± 0.46
TGAACCCACAAATCACGTACATATATATACACGTGT [XGTACX_site7739]	8.49 ± 0.31
TTTAACAACTATTTCTGTACACATTTTTATATAATT [XGTACX_site4917]	8.88 ± 0.43
